# According to the supplement of paper PMC10322689:
# Several values for one entry are separate records, joined by “and”; a condition that tells them apart may be missing. Equal entries are not always repeated. Structures can show the parent of a compound that is named as a salt. Some of the results follow. Repeats are few or missing, and single values can be far off.
# Tested on: mouse mesenchymal chondrosarcoma cells (HEY1-NCOA2)
# Assay: XTT absorbance relative to DMSO control (cell viability) (fraction of DMSO control); higher = more viable cells / less growth inhibition
row,SMILES,XTT absorbance
1,O=C(Nc1cccc(NC(=O)c2cccc(O)c2O)c1)c1cccc(O)c1O,0.74
2,Cc1ncc2ccccc2c1C#N [4-cyano-3-methylisoquinoline],0.941
3,COC(=O)Nc1nc2cc(C(=O)c3cccs3)ccc2[nH]1 [Nocodazole],0.547
4,CC(C)C[C@@H](N)[C@H](O)C(=O)N[C@H](C(=O)N[C@H](C(=O)N[C@@H](CC(=O)O)C(=O)O)C(C)C)C(C)C [Amastatin],0.995
5,O=C(Cc1ccccc1)Nc1c2c(nc3ccccc13)N(Cc1ccccc1)CC2,0.92
6,COc1ccc(OC)c2c(=S)c3ccccc3[nH]c12,0.958
7,CNCCCN1c2ccccc2CCc2ccccc21 [desipramine hydrochloride],0.983
8,C/C=C/C/C=C/CCC(=O)[C@H]1O[C@H]1C(N)=O [Cerulenin],0.942
9,CCCOc1ccccc1-c1nc2[nH]nnc2c(=O)[nH]1 [Zaprinast],0.882
10,CC(ONC(=O)c1cc(C(F)(F)F)cc(C(F)(F)F)c1)C(=O)Nc1ccc(Cl)cc1 (stereo unspecified),1.01
11,CCOC(=O)C1=C(C)NC(=S)NC1c1cccc(O)c1 (stereo unspecified) [Monastrol],0.923
12,O=c1cc(-c2ccccc2)oc2cc(O)c(O)c(O)c12 [Baicalein],0.927
13,CNC(=O)c1ccccc1Sc1ccc2c(/C=C/c3ccccn3)n[nH]c2c1 [Axitinib],0.725
14,CNC(=O)[C@H](Cc1c[nH]c2ccccc12)NC(=O)[C@@H](CC(=O)NO)CC(C)C,0.861
15,C[C@@H]1C[C@H]2O[C@@H]2/C=C\C=C\C(=O)Cc2c(Cl)c(O)cc(O)c2C(=O)O1 [Radicicol],0.55
16,NCC(=O)Nc1ccc(-n2nc(C(F)(F)F)cc2-c2ccc3c(ccc4ccccc43)c2)cc1,1.02
17,Cn1c(=O)c2nc[nH]c2n(C)c1=O [Theophylline],0.918
18,C1=Cc2nc1cc1nc(c(-c3ccccc3)c3ccc(cc4ccc([nH]4)c2-c2ccccc2)[nH]3)C=C1,1.01

row,SMILES,XTT absorbance
1,N#C/C(=C\c1ccc2oc(=O)[nH]c2c1)C(=O)c1ccc(O)c(O)c1,0.928
2,O=Nc1c(-c2c(O)[nH]c3cc(Br)ccc23)[nH]c2ccccc12 [GSK-3 inhibitor IX],0.99
3,COc1cccc(-c2cc(=O)c3ccccc3o2)c1N,0.858 and 0.902
4,CCN(CC)CCCCNc1ncc2cc(-c3cc(OC)cc(OC)c3)c(NC(=O)NC(C)(C)C)nc2n1,0.927
5,CCCCOc1cc(CC2CNC(=O)N2)ccc1OC (stereo unspecified),0.911
6,CNC(=O)c1cc(Oc2ccc(NC(=O)Nc3ccc(Cl)c(C(F)(F)F)c3)cc2)ccn1 [sorafenib],1.01
7,Cc1[nH]c(/C=C2\C(=O)Nc3ccc(S(=O)(=O)N(C)c4cccc(Cl)c4)cc32)c(C)c1C(=O)N1CCN(C)CC1,0.839
8,COc1cc2ncnc(Nc3ccc(NC(=O)c4ccccc4)cc3)c2cc1OC [Aurora kinase inhibitor II],0.971
9,NC(=O)c1cccc2cn(-c3ccc([C@@H]4CCCNC4)cc3)nc12 [MK-4827 (Niraparib)],0.86
10,O=C1C(SCCO)=C(SCCO)C(=O)c2ccccc21,0.774
11,Cn1nnc2c(C(N)=O)ncn2c1=O [temozolomide],1.02
12,Cc1c(C)c2c(c(C)c1O)CCC(C)(COc1ccc(CC3SC(=O)NC3=O)cc1)O2 (stereo unspecified) [Troglitazone],0.939
13,CC(C)C(=O)Nc1ccc([N+](=O)[O-])c(C(F)(F)F)c1 [Flutamide],0.965
14,COc1cc2/c(=N/c3ccc(Br)cc3F)nc[nH]c2cc1OCC1CCN(C)CC1 [Vandetanib],0.805
15,"CCNCCCNCCCCNCCCNCC [N1,N12-Diethylspermine (BESpm)]",1.19
16,Cc1ccc2nc(NCCN)c3ncc(C)n3c2c1,0.875
17,NC(=O)Nc1sc(-c2ccccc2)cc1C(N)=O [IKK-2 inhibitor VI],0.783
18,COc1ccc(Cn2ccc3ccc(C(=O)NO)cc32)cc1,1.09
